Laboratory results published in the supplement of paper PMC4604168 (melanoma cell lines).
Some of the results follow. Most values come without repeats; read them as rough.

Assays:
Assay in all cases: cell count relative to DMSO control; melanoma cells; higher = more viable cells
Conditions in all cases: library dose: standard library concentration; 72 h; first compound 2 µM
G361 = system: G361
IPC-298 = system: IPC-298
IST-MEL1 = system: IST-MEL1
LB2518-MEL = system: LB2518-MEL
LOXIMVI = system: LOXIMVI
MEL-HO = system: MEL-HO
MZ2-MEL = system: MZ2-MEL
MeWo = system: MeWo
RPMI7951 = system: RPMI7951
RVH-421 = system: RVH-421
SkMel28 = system: SkMel28
SkMel2 = system: SkMel2
SkMel30 = system: SkMel30
SkMel5 = system: SkMel5
UACC257 = system: UACC257
UACC62 = system: UACC62
WM115 = system: WM115
WM1716 = system: WM1716
WM1745 = system: WM1745
WM3526 = system: WM3526
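Further: cells treated in 1,536-well plates, then fixed and DAPI-stained, with nuclei counted from automated high-throughput microscope images.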

SMILES | cell count (G361) [%] | cell count (IPC-298) [%] | cell count (IST-MEL1) [%] | cell count (LB2518-MEL) [%] | cell count (LOXIMVI) [%] | cell count (MEL-HO) [%] | cell count (MZ2-MEL) [%] | cell count (MeWo) [%] | cell count (RPMI7951) [%] | cell count (RVH-421) [%] | cell count (SkMel28) [%] | cell count (SkMel2) [%] | cell count (SkMel30) [%] | cell count (SkMel5) [%] | cell count (UACC257) [%] | cell count (UACC62) [%] | cell count (WM115) [%] | cell count (WM1716) [%] | cell count (WM1745) [%] | cell count (WM3526) [%]
Cn1sc(=O)n(Cc2ccccc2)c1=O + COc1ccc(Cl)c(Nc2nc3ccccc3nc2NS(=O)(=O)c2cccc(NC(=O)C(C)(C)N)c2)c1 [XL147] (partner dose 4 µM) | 82.3 | 75.5 | 70.8 | 89.1 | 85.7 | 67.4 | 77.5 | 104 | 99.6 | 80 | 98.7 | 114 | 97.7 | 95.2 | 84.8 | 112 | 107 | 91.3 | 105 | 98.6
C[C@@H](N)c1ccc(C(=O)Nc2ccnc3[nH]ccc23)cc1 + CS(=O)(=O)CCNCc1ccc(-c2ccc3ncnc(Nc4ccc(OCc5cccc(F)c5)c(Cl)c4)c3c2)o1 [lapatinib] (partner dose 4 µM) | 67.5 | 93.1 | 87.1 | 79.3 | 89.6 | 48.3 | 17.4 | 69.3 | 32.8 | 170 | 62.3 | 86 | 71.8 | 44.1 | 82.8 | 68.1 | 115 | 49.9 | 41.9 | 83.5
Cn1sc(=O)n(Cc2ccccc2)c1=O + CCN(CC)CCNC(=O)c1c(C)[nH]c(/C=C2\C(=O)Nc3ccc(F)cc32)c1C [sunitinib] (partner dose 2 µM) | 87.3 | 73.7 | 99.9 | 65.3 | 114 | 106 | 95 | 57.7 | 69.2 | 93.6 | 81.1 | 83.4 | 63.9 | 60 | 95.6 | 56.1 | 62.5 | 104 | 53.8 | 55.1
CCCCCCCCCCCCCCCCCCOP(=O)([O-])OC1CC[N+](C)(C)CC1 [Perifosine] + Cc1ccc(NC(=O)c2cccc(N(C)C)c2)cc1NC(=O)c1ccc(O)cc1 [ZM336372] (partner dose 10 µM) | 101 | 104 | 88.3 | 97.7 | 86.9 | 88.1 | 91.8 | 82.7 | 14.3 | 80.8 | 85.6 | 99.3 | 97.7 | 89.7 | 81.3 | 70.1 | 85.7 | 98.3 | 69.3 | 82.6
Cn1sc(=O)n(Cc2ccccc2)c1=O + NC(=O)c1ccc(N(C(N)=O)c2c(F)cccc2F)nc1-c1ccc(F)cc1F [VX702] (partner dose 2 µM) | 89.3 | 101 | 103 | 112 | 94 | 99.3 | 111 | 92.9 | 68.1 | 110 | 83 | 87.8 | 74.1 | 67.8 | 103 | 66.2 | 89.7 | 98.6 | 104 | 83.1
Cn1sc(=O)n(Cc2ccccc2)c1=O + C#Cc1cccc(Nc2ncnc3cc(OCCOC)c(OCCOC)cc23)c1 [erlotinib] (partner dose 4 µM) | 80.6 | 63.7 | 81.4 | 60.1 | 99.6 | 75.4 | 76.1 | 70.9 | 76.1 | 84.4 | 79.6 | 71.7 | 63.1 | 59.2 | 104 | 64.3 | 77.3 | 93.8 | 58 | 75.2
Cn1sc(=O)n(Cc2ccccc2)c1=O + COCC[n+]1c2c(n(Cc3cnccn3)c1C)C(=O)c1ccccc1C2=O [YM155] (partner dose 0.002 µM) | 86 | 69.6 | 42 | 31.3 | 45 | 103 | 30.3 | 53.9 | 39.5 | 140 | 59.5 | 44 | 70.7 | 37.8 | 32.4 | 52.5 | 72.5 | 66.2 | 87 | 39.4
CCCCCCCCCCCCCCCCCCOP(=O)([O-])OC1CC[N+](C)(C)CC1 [Perifosine] + C[C@]1(O)C[C@@H](c2nc(-c3ccc4ccc(-c5ccccc5)nc4c3)c3c(N)nccn32)C1 [OSI906] (partner dose 2 µM) | 74.3 | 96.2 | 86.7 | 82.2 | 63.3 | 77 | 88.2 | 74.8 | 61.7 | 83.8 | 69.1 | 74.6 | 101 | 60.8 | 81 | 60.4 | 99.7 | 92.4 | 74.7 | 68.5
Cn1sc(=O)n(Cc2ccccc2)c1=O + C=CCn1c(=O)c2cnc(Nc3ccc(N4CCN(C)CC4)cc3)nc2n1-c1cccc(C(C)(C)O)n1 [MK1775] (partner dose 0.1 µM) | 97.6 | 87.1 | 100 | 57.9 | 98.6 | 101 | 128 | 86 | 63.4 | 93 | 73.1 | 81.5 | 78.7 | 67.6 | 92.1 | 62.5 | 67.4 | 106 | 56.6 | 96.4
Cn1sc(=O)n(Cc2ccccc2)c1=O + CS(=O)(=O)CCNCc1ccc(-c2ccc3ncnc(Nc4ccc(OCc5cccc(F)c5)c(Cl)c4)c3c2)o1 [lapatinib] (partner dose 4 µM) | 70.5 | 81.4 | 88.9 | 89.4 | 87.7 | 79.6 | 61.9 | 84.7 | 53.5 | 94.3 | 94 | 65.3 | 78.7 | 59.3 | 81.9 | 62.5 | 79.6 | 84.3 | 75.3 | 74.1
